# Data published in article PMC4336329 (PLoS ONE, 2015).
# Among all 310,000 compounds or so, about 14,000 (4.5%) showed an effect of 50% or more. The effect is printed as a negative number. Some of the results follow.
# Target: human ether-à-go-go-related gene (hERG) potassium channel (human, UniProt Q12809)
# Test: primary screen, population patch clamp on CHO cells stably expressing hERG
# 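Note: peak tail current of the secondary pulse compared with the same well before compound.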
# Chain of human ether-à-go-go-related gene (hERG) potassium channel (Q12809 whole entry, looked up): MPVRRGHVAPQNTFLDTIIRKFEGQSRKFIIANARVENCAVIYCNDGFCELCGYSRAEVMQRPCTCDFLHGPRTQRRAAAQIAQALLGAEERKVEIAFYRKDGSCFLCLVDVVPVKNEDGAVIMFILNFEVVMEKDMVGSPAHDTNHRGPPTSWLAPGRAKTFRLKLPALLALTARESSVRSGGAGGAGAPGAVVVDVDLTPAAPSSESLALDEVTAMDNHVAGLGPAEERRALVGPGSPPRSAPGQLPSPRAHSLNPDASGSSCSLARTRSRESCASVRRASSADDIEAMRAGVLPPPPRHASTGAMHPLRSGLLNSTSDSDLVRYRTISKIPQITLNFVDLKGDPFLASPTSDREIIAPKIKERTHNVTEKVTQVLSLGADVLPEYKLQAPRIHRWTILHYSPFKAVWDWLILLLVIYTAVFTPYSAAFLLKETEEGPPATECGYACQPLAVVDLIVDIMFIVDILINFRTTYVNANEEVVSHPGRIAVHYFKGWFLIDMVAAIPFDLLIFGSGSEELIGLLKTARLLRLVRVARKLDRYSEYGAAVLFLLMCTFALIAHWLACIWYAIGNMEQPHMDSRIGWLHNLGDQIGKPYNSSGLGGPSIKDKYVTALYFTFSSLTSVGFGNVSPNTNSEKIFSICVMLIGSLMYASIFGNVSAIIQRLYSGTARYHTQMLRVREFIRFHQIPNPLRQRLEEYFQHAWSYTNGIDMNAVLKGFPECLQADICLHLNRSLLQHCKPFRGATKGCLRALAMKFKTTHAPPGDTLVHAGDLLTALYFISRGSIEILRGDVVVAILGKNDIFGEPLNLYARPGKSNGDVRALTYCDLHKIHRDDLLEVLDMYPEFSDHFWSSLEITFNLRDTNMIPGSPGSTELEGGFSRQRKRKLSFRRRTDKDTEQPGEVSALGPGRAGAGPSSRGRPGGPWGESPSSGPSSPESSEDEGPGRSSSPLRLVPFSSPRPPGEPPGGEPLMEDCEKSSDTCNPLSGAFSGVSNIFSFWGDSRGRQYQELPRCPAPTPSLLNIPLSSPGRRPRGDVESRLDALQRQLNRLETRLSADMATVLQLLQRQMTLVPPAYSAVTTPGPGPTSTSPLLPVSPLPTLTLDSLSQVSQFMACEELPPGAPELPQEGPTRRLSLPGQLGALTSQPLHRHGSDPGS
row,SMILES,"hERG current change (%, negative = inhibition) at 10uM"
1,COC(=O)c1ccccc1NC(=O)CN1C(=O)C2CCCN2c2ncc(Cl)cc21 (stereo not drawn),-6.15%
2,Cc1cc(C)c2sc(N(CCCN(C)C)C(=O)c3ccc(S(=O)(=O)N(C)Cc4ccccc4)cc3)nc2c1.Cl,-13.5%
3,COc1cc(/C=C/C(=O)OCC(=O)NC(=O)NC(C)(C)C)ccc1OCC#N,3.78%
4,Cc1ccc(SCC(=O)NCCC2=CCCCC2)cc1,-5.25%
5,O=[N+]([O-])c1cccc(-c2nnc(SCc3cccnc3)o2)c1,-45.8%
6,COc1ccc(C2=CC(=O)C[C@H](c3ccc(F)cc3)C2)cc1F,-16.5%
7,Cc1c(-c2ccc(Br)cc2)[n+](=O)c2c(n1[O-])CCCCC2,8.14%
8,O=C(COc1cc(Cl)c(Cl)cc1Cl)NC(=O)NC1CCCC1,7.64%
9,Cc1ccc(S(=O)(=O)N2CCN(C(=O)Cn3nc(C)c([N+](=O)[O-])c3C)CC2)c(C)c1,-11.3%
10,O=C1N/C(=C/c2cccs2)C(=O)N1Cc1ccc(F)cc1,15.4%
11,CCC(C)NCCOc1cccc(Br)c1.O=C(O)C(=O)O (stereo not drawn),-0.0286%
12,O=C1/C(=C\c2ccc(O)cc2)SC(=S)N1c1cccnc1,21.2%
13,CCOC(=O)c1c(S(=O)(=O)NCC(=O)N2CCN(c3ccccc3)CC2)c(C)n(C)c1C,-24.8%
14,COc1ccccc1C(=O)C1CCCN(C(=O)c2cccc(-n3cccn3)c2)C1 (stereo not drawn),-3.52%
15,O=C(CNC(=O)c1ccc(Br)cc1)NCCc1nc2ccccc2[nH]1,-6.76%
16,Cc1cc(C)cc(NC(=S)NCc2ccc(F)cc2)c1,9.4%
17,CCc1cccc(CC)c1NC(=S)NCCc1c(C)[nH]c2ccccc12,-2.64%
18,COc1cccc(CNC(=O)c2cc(=O)[nH]c3ccc(S(=O)(=O)N4CCOCC4)cc23)c1,9.73%
19,CC(OC(=O)c1ccccc1Oc1ccccc1)C(=O)NC1CC1 (stereo not drawn),18.9%
20,CN(C)C(=O)COC(=O)[C@H](Cc1ccccc1)NC(=O)c1ccco1,7.23%
21,CC(CCc1ccccc1)NC(=O)C1CCCN(c2nnc(-n3cccc3)s2)C1 (stereo not drawn),-11.2%
22,CCOC(=O)C1=C(C)OC(N)=C(C(=O)OC)C12C(=O)Nc1ccc(Br)cc12 (stereo not drawn),19.2%

row,SMILES,"hERG current change (%, negative = inhibition) at 10uM"
1,CC1CCN(C(=O)CSc2nnc3ccc(-c4cccnc4)nn23)CC1,-21.8%
2,NS(=O)(=O)c1ccc(CNC(=O)c2ccc(S(=O)(=O)C(F)F)cc2)cc1,3.5%
3,CCOc1cc(/C=N/NC(=O)COc2nc(C)cc(COC)c2C#N)ccc1O,-10%
4,O=C(CSc1nc2ccsc2c(=O)n1Cc1ccc(C(=O)O)cc1)NCc1ccco1,2.08%
5,Cc1ccc(S(=O)(=O)CC(=O)N2CCN(c3cccc(C(F)(F)F)c3)CC2)cc1,-50.4%
6,COc1cc(/C=C/C(=O)N2C(=O)c3cccc(N)c3C2=O)cc(OC)c1OC,0.941%
7,Cc1ccc(S(=O)(=O)N(C)N=O)cc1,12.7%
8,Cl.Nc1ccc(CCN2CCCC2)cc1,10.2%
9,CS(=O)(=O)N1N=C(c2cccs2)CC1c1ccccc1 (stereo not drawn),-11.3%
10,O=C(CCc1nnc(-c2ccsc2)o1)NCc1ccccc1OC(F)(F)F,3.76%
11,Cc1ccc(S(=O)(=O)NCCC(=O)NNC(=O)COc2ccccc2Cl)cc1C,-1.77%
12,O=C(N/N=C/c1c(F)cccc1Cl)c1cc(C2CC2)[nH]n1,24%
13,COc1ccc2[nH]c(=O)c(CN(CCCN3CCOCC3)C(=O)NCc3ccccc3)cc2c1,8.39%
14,Cc1nc(C(=O)NC(C)C)nn1-c1cc(Cl)cc(Cl)c1,18.1%
15,N/C(COc1cccc(C(F)(F)F)c1)=N\NC(=O)c1cccnc1Oc1ccccc1,-33.5%
16,COc1ccc(N2C(=O)CC(Sc3nc4c(cc3C#N)CCC4)C2=O)cc1 (stereo not drawn),21.3%
17,COc1cccc2c3c(c(C)nc12)CCN3c1ccccc1,-54.6%
18,CCOc1ccccc1Oc1coc2cc(OCC(=O)O)ccc2c1=O,24.3%
19,COc1ccc(C(=O)Nc2cc(=O)[nH]c3ncnn23)cc1,0.659%
20,c1ccc(OCc2nn3c(-c4ccco4)nnc3s2)cc1,-41.1%
21,COc1ccc2[nH]cc(C(=O)CN3CCCC(C)(C)C3)c2c1,-16.6%
22,Cc1cc(C)nc(/N=C2\NC(=O)CC(C(=O)O)N2c2ccc(Oc3ccccc3)cc2)n1 (stereo not drawn),2.33%

row,SMILES,"hERG current change (%, negative = inhibition) at 10uM"
1,CC(=O)/C(C[N+]1(C)CCCCC1)=N\O.[I-],16.4%
2,CCOc1ccc(C(=O)NC(C(=O)NCCc2ccc(OC(F)F)cc2)C(C)C)cc1 (stereo not drawn),-62.6%
3,COc1ccc(Nc2nc(C)c3ccccc3n2)cc1,-17.4%
4,COc1ccc(NCc2ccc([N+](=O)[O-])s2)c(OC)c1,-24.4%
5,CNC(=O)c1ncoc1-c1ccc(Cl)cc1,-1.31%
6,CN(C(=O)c1ccc(NC(=O)Cc2ccc(NC(=O)C3CCN(C(=O)C4CCCC4)CC3)cc2)cc1)C1CC1,22.8%
7,CCOc1ccc(N(C(=O)/C=C/C(=O)Nc2cc(C)on2)C(C(=O)NC2CCCC2)c2ccccc2C)cc1 (stereo not drawn),-6.96%
8,CCC1(c2ccccc2)C(=O)NCNC1=O,1.93%
9,Cc1cc(OCC(=O)NCCCN(C)C)cc(C)c1Br,0.957%
10,Cn1c(=O)c2c(ncn2CC(COCc2ccc(Cl)cc2)OCc2ccc(Cl)cc2)n(C)c1=O (stereo not drawn),-51.1%
11,O=C(COC(=O)c1ccc2ncsc2c1)NC(=O)NCc1ccccc1,1.12%
12,O=C1C2ON(c3ccccc3)C(c3ccncc3)C2C(=O)N1c1ccc(N2CCOCC2)cc1 (stereo not drawn),12.4%
13,COc1cc(C(=O)N2CCN(C(=O)c3ccco3)CC2)cc(OC)c1OC,-2.68%
14,c1ccc(-c2ccccc2OCCCCn2ccnc2)cc1,-26.4%
15,CCCC(=O)c1c[nH]c(C(=O)NCCCN2CCOCC2)c1,11.3%
16,Cn1c(SCC(=O)N2CCCc3ccccc32)nnc1-c1ccccc1,-16.8%
17,COc1cccc([C@@H]2CC=C(C(=O)O)[C@H](c3cccc(Cl)c3)N2S(=O)(=O)c2ccc(C)cc2)c1,4.75%
18,O=C(CSCc1ccc(F)cc1)N1CCOCC1,4.35%
19,Cc1cccn2c(=O)c3cc(C(=O)NCc4ccco4)c(=N)n(C(C)C)c3nc12,-77.6%
20,CN(C(=O)COC(=O)/C=C/c1ccc(C(F)(F)F)cc1)c1c(N)n(Cc2ccccc2)c(=O)[nH]c1=O,-0.744%
21,Cc1occc1-c1nnc(SCC(=O)NCCc2ccccc2)n1Cc1ccccc1,-81.1%
22,NC(=O)C1CCN(C(=O)CCSCc2ccccc2)CC1,-1.36%

row,SMILES,"hERG current change (%, negative = inhibition) at 10uM"
1,Cc1cccc(C)c1NC(=O)CC(C)c1ccccc1 (stereo not drawn),6.52%
2,COC(=O)c1[nH]c2ccccc2c1NC(=O)CN1CCN(c2cccc(Cl)c2)CC1,6.84%
3,O=C(NCCCN1CCCC1=O)c1ccc(OCc2ccccc2)cc1,-12.9%
4,Cc1ccc(S(=O)(=O)N2CCOCC2)cc1C(=O)NCc1ccccn1,-0.76%
5,Cc1ccc(-n2c3c(cc(C(=O)NC4CCSC4=O)c2=O)C(=O)CC(C)(C)C3)cc1 (stereo not drawn),-10.2%
6,CC1CCCC(NC(=O)c2ccc3snnc3c2)C1C (stereo not drawn),11%
7,COC(=O)CNC(c1ccccc1Cl)c1cc(Br)ccc1NS(=O)(=O)c1ccc(C)cc1 (stereo not drawn),1.92%
8,CCOc1ccc(OCCOC(=O)C2CCN(S(=O)(=O)c3ccc(C)c(C)c3)CC2)cc1,-22.4%
9,COc1ccc2c(c1)Cc1sc(NC(=O)c3cccnc3)nc1-2,13.2%
10,COc1cc([N+](=O)[O-])ccc1NC(=O)COC(=O)c1n[nH]c2ccccc12,13.8%
11,O=C(COC(=O)[C@@H]1CCCN1S(=O)(=O)c1ccccc1F)c1ccccc1,3.14%
12,Cc1cc(C(=O)COC(=O)c2ccc(NC(=O)CC#N)cc2)c(C)n1CCc1ccc(F)cc1,-15.7%
13,CCCC[N+](CC#Cc1ccccc1)(CCCC)CCCS(=O)(=O)[O-],25.2%
14,Cc1cccc(NC(=O)C(C)N2C(=O)C3C4CC(C(Br)C4Br)C3C2=O)c1 (stereo not drawn),3.14%
15,CSCCC(NC(N)=O)C(=O)Nc1cccc(C#N)c1 (stereo not drawn),8.79%
16,Cc1cc(C(=O)N2CCCCCC2)cs1,7.5%
17,O=C(COC(=O)c1cccs1)Nc1ccccc1,2.54%
18,O=C(NCCc1ccccc1)c1noc2c1CCCCC2,-2.58%
19,COCCCNC(=S)NNC(=O)c1ccc(C(C)(C)C)cc1,2.06%
20,CC1CCN(c2nc3ccccc3nc2C(C#N)C(=O)OC2CCCCC2)CC1 (stereo not drawn),11.3%
21,Cc1cc(=O)oc2cc(OCC(=O)NC3CCCCC3)ccc12,-60.7%
